# Test results published in the supplement of paper PMC12217912.
# The other results are listed elsewhere or left out. Sequences were assembled here from the parent chain. Values near 0.05 are background.
# B1: TEV protease; numbered along this chain (parent)
# chain: MGESLFKGPRDYNPISSSICHLTNESDGHTTSLYGIGFGPFIITNKHLFRRNNGTLVVQSLHGVFKVKDTTTLQQHLVDGRDMIIIRMPKDFPPFPQKLKFREPQREERICLVTTNFQTKSMSSMVSDTSCTFPSGDGIFWKHWIQTKDGQCGSPLVSTRDGFIVGIHSASNFTNTNNYFTSVPKNFMELLTNQEAQQWVSGWRLNADSVLWGGHKVFMVKPEEPFQPVKEATQL
# Variants of: B1
# Assay: raw area under fraction-flipped curve 0-4 h after induction (AUC4h, not background-subtracted), DNA-recorder readout of cleavage of the substrate (dimensionless); higher = more cleavage of the substrate by the protease variant
# Conditions: temperature: 34 °C; time window: 0-4 h after rhamnose induction
# Protocol: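 In vivo DNA recorder in E. coli TOP10(DE3) ΔrhaA at 34 °C. Each TEVp single-site mutant (parent TEVp 0) is paired with a single-site variant of the 7-mer TEVs (canonical ENLYFQ|S). The substrate sits between flexible linkers in a Bxb1-sfGFP-TEVs-SsrA fusion, so cleavage stabilises Bxb1 and speeds flipping of a recombination array, read by NGS. The value is the raw area under the fraction-flipped curve over 0-4 h after rhamnose induction (AUC4h), with ≥20 reads per time point. It is not background-subtracted; inactive controls average about 0.047.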
# 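Note: Bxb1 expression induced with 0.2% (w/v) L-rhamnose at OD600 near 0.5, cultures sampled hourly, flipped fraction per protease–substrate barcode pair counted by paired-end Illumina sequencing.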
Variant,area with substrate DNLYFQS,area with substrate GNLYFQS,area with substrate HNLYFQS,area with substrate INLYFQS,area with substrate KNLYFQS,area with substrate LNLYFQS,area with substrate MNLYFQS,area with substrate NNLYFQS,area with substrate PNLYFQS,area with substrate SNLYFQS
MPESLFKGPRDYNPISSSICHLTNESDGHTTSLYGIGFGPFIITNKHLFRRNNGTLVVQSLHGVFKVKDTTTLQQHLVDGRDMIIIRMPKDFPPFPQKLKFREPQREERICLVTTNFQTKSMSSMVSDTSCTFPSGDGIFWKHWIQTKDGQCGSPLVSTRDGFIVGIHSASNFTNTNNYFTSVPKNFMELLTNQEAQQWVSGWRLNADSVLWGGHKVFMVKPEEPFQPVKEATQL [G2P],0.0851,0.0913,0.0629,0.0952,0.0547,0.0668,0.0666,0.0696,0.078,0.0538
MWESLFKGPRDYNPISSSICHLTNESDGHTTSLYGIGFGPFIITNKHLFRRNNGTLVVQSLHGVFKVKDTTTLQQHLVDGRDMIIIRMPKDFPPFPQKLKFREPQREERICLVTTNFQTKSMSSMVSDTSCTFPSGDGIFWKHWIQTKDGQCGSPLVSTRDGFIVGIHSASNFTNTNNYFTSVPKNFMELLTNQEAQQWVSGWRLNADSVLWGGHKVFMVKPEEPFQPVKEATQL [G2W],0.141,0.059,0.071,,,0.0797,,,,0.0745
MGKSLFKGPRDYNPISSSICHLTNESDGHTTSLYGIGFGPFIITNKHLFRRNNGTLVVQSLHGVFKVKDTTTLQQHLVDGRDMIIIRMPKDFPPFPQKLKFREPQREERICLVTTNFQTKSMSSMVSDTSCTFPSGDGIFWKHWIQTKDGQCGSPLVSTRDGFIVGIHSASNFTNTNNYFTSVPKNFMELLTNQEAQQWVSGWRLNADSVLWGGHKVFMVKPEEPFQPVKEATQL [E3K],0.119,,0.0433,,,,,0.0752,0.0762,
MGESIFKGPRDYNPISSSICHLTNESDGHTTSLYGIGFGPFIITNKHLFRRNNGTLVVQSLHGVFKVKDTTTLQQHLVDGRDMIIIRMPKDFPPFPQKLKFREPQREERICLVTTNFQTKSMSSMVSDTSCTFPSGDGIFWKHWIQTKDGQCGSPLVSTRDGFIVGIHSASNFTNTNNYFTSVPKNFMELLTNQEAQQWVSGWRLNADSVLWGGHKVFMVKPEEPFQPVKEATQL [L5I],0.127,,0.0658,,,,0.0723,,0.0717,
MGESLCKGPRDYNPISSSICHLTNESDGHTTSLYGIGFGPFIITNKHLFRRNNGTLVVQSLHGVFKVKDTTTLQQHLVDGRDMIIIRMPKDFPPFPQKLKFREPQREERICLVTTNFQTKSMSSMVSDTSCTFPSGDGIFWKHWIQTKDGQCGSPLVSTRDGFIVGIHSASNFTNTNNYFTSVPKNFMELLTNQEAQQWVSGWRLNADSVLWGGHKVFMVKPEEPFQPVKEATQL [F6C],0.0792,,,,,,0.0613,0.0559,0.068,0.0508
MGESLEKGPRDYNPISSSICHLTNESDGHTTSLYGIGFGPFIITNKHLFRRNNGTLVVQSLHGVFKVKDTTTLQQHLVDGRDMIIIRMPKDFPPFPQKLKFREPQREERICLVTTNFQTKSMSSMVSDTSCTFPSGDGIFWKHWIQTKDGQCGSPLVSTRDGFIVGIHSASNFTNTNNYFTSVPKNFMELLTNQEAQQWVSGWRLNADSVLWGGHKVFMVKPEEPFQPVKEATQL [F6E],0.0681,,0.0527,,0.0689,0.0695,,0.0618,,
MGESLFFGPRDYNPISSSICHLTNESDGHTTSLYGIGFGPFIITNKHLFRRNNGTLVVQSLHGVFKVKDTTTLQQHLVDGRDMIIIRMPKDFPPFPQKLKFREPQREERICLVTTNFQTKSMSSMVSDTSCTFPSGDGIFWKHWIQTKDGQCGSPLVSTRDGFIVGIHSASNFTNTNNYFTSVPKNFMELLTNQEAQQWVSGWRLNADSVLWGGHKVFMVKPEEPFQPVKEATQL [K7F],0.106,,,,,,,,,
MGESLFRGPRDYNPISSSICHLTNESDGHTTSLYGIGFGPFIITNKHLFRRNNGTLVVQSLHGVFKVKDTTTLQQHLVDGRDMIIIRMPKDFPPFPQKLKFREPQREERICLVTTNFQTKSMSSMVSDTSCTFPSGDGIFWKHWIQTKDGQCGSPLVSTRDGFIVGIHSASNFTNTNNYFTSVPKNFMELLTNQEAQQWVSGWRLNADSVLWGGHKVFMVKPEEPFQPVKEATQL [K7R],0.0711,,,,,,,,,
MGESLFTGPRDYNPISSSICHLTNESDGHTTSLYGIGFGPFIITNKHLFRRNNGTLVVQSLHGVFKVKDTTTLQQHLVDGRDMIIIRMPKDFPPFPQKLKFREPQREERICLVTTNFQTKSMSSMVSDTSCTFPSGDGIFWKHWIQTKDGQCGSPLVSTRDGFIVGIHSASNFTNTNNYFTSVPKNFMELLTNQEAQQWVSGWRLNADSVLWGGHKVFMVKPEEPFQPVKEATQL [K7T],0.086,,0.0524,,,,,0.0748,,0.0469
MGESLFKGDRDYNPISSSICHLTNESDGHTTSLYGIGFGPFIITNKHLFRRNNGTLVVQSLHGVFKVKDTTTLQQHLVDGRDMIIIRMPKDFPPFPQKLKFREPQREERICLVTTNFQTKSMSSMVSDTSCTFPSGDGIFWKHWIQTKDGQCGSPLVSTRDGFIVGIHSASNFTNTNNYFTSVPKNFMELLTNQEAQQWVSGWRLNADSVLWGGHKVFMVKPEEPFQPVKEATQL [P9D],0.0673,,0.0733,,,,,0.0627,0.0711,0.0648
MGESLFKGSRDYNPISSSICHLTNESDGHTTSLYGIGFGPFIITNKHLFRRNNGTLVVQSLHGVFKVKDTTTLQQHLVDGRDMIIIRMPKDFPPFPQKLKFREPQREERICLVTTNFQTKSMSSMVSDTSCTFPSGDGIFWKHWIQTKDGQCGSPLVSTRDGFIVGIHSASNFTNTNNYFTSVPKNFMELLTNQEAQQWVSGWRLNADSVLWGGHKVFMVKPEEPFQPVKEATQL [P9S],0.0847,0.0506,0.078,,0.0563,,,,0.0678,
MGESLFKGTRDYNPISSSICHLTNESDGHTTSLYGIGFGPFIITNKHLFRRNNGTLVVQSLHGVFKVKDTTTLQQHLVDGRDMIIIRMPKDFPPFPQKLKFREPQREERICLVTTNFQTKSMSSMVSDTSCTFPSGDGIFWKHWIQTKDGQCGSPLVSTRDGFIVGIHSASNFTNTNNYFTSVPKNFMELLTNQEAQQWVSGWRLNADSVLWGGHKVFMVKPEEPFQPVKEATQL [P9T],0.0838,0.0721,0.0753,,,,,,0.0756,

# Same assay, conditions: temperature: 34 °C; time window: 0-4 h after rhamnose induction
Variant,area with substrate TNLYFQS,area with substrate WNLYFQS,area with substrate YNLYFQS,area with substrate RNLYFQS,area with substrate VNLYFQS
MPESLFKGPRDYNPISSSICHLTNESDGHTTSLYGIGFGPFIITNKHLFRRNNGTLVVQSLHGVFKVKDTTTLQQHLVDGRDMIIIRMPKDFPPFPQKLKFREPQREERICLVTTNFQTKSMSSMVSDTSCTFPSGDGIFWKHWIQTKDGQCGSPLVSTRDGFIVGIHSASNFTNTNNYFTSVPKNFMELLTNQEAQQWVSGWRLNADSVLWGGHKVFMVKPEEPFQPVKEATQL [G2P],0.082,0.064,0.0694,,
MWESLFKGPRDYNPISSSICHLTNESDGHTTSLYGIGFGPFIITNKHLFRRNNGTLVVQSLHGVFKVKDTTTLQQHLVDGRDMIIIRMPKDFPPFPQKLKFREPQREERICLVTTNFQTKSMSSMVSDTSCTFPSGDGIFWKHWIQTKDGQCGSPLVSTRDGFIVGIHSASNFTNTNNYFTSVPKNFMELLTNQEAQQWVSGWRLNADSVLWGGHKVFMVKPEEPFQPVKEATQL [G2W],0.0776,0.0574,,,
MGKSLFKGPRDYNPISSSICHLTNESDGHTTSLYGIGFGPFIITNKHLFRRNNGTLVVQSLHGVFKVKDTTTLQQHLVDGRDMIIIRMPKDFPPFPQKLKFREPQREERICLVTTNFQTKSMSSMVSDTSCTFPSGDGIFWKHWIQTKDGQCGSPLVSTRDGFIVGIHSASNFTNTNNYFTSVPKNFMELLTNQEAQQWVSGWRLNADSVLWGGHKVFMVKPEEPFQPVKEATQL [E3K],0.0316,0.0706,0.0695,0.0656,0.0189
MGESIFKGPRDYNPISSSICHLTNESDGHTTSLYGIGFGPFIITNKHLFRRNNGTLVVQSLHGVFKVKDTTTLQQHLVDGRDMIIIRMPKDFPPFPQKLKFREPQREERICLVTTNFQTKSMSSMVSDTSCTFPSGDGIFWKHWIQTKDGQCGSPLVSTRDGFIVGIHSASNFTNTNNYFTSVPKNFMELLTNQEAQQWVSGWRLNADSVLWGGHKVFMVKPEEPFQPVKEATQL [L5I],0.0736,0.0719,,,
MGESLCKGPRDYNPISSSICHLTNESDGHTTSLYGIGFGPFIITNKHLFRRNNGTLVVQSLHGVFKVKDTTTLQQHLVDGRDMIIIRMPKDFPPFPQKLKFREPQREERICLVTTNFQTKSMSSMVSDTSCTFPSGDGIFWKHWIQTKDGQCGSPLVSTRDGFIVGIHSASNFTNTNNYFTSVPKNFMELLTNQEAQQWVSGWRLNADSVLWGGHKVFMVKPEEPFQPVKEATQL [F6C],0.0551,0.049,,,
MGESLEKGPRDYNPISSSICHLTNESDGHTTSLYGIGFGPFIITNKHLFRRNNGTLVVQSLHGVFKVKDTTTLQQHLVDGRDMIIIRMPKDFPPFPQKLKFREPQREERICLVTTNFQTKSMSSMVSDTSCTFPSGDGIFWKHWIQTKDGQCGSPLVSTRDGFIVGIHSASNFTNTNNYFTSVPKNFMELLTNQEAQQWVSGWRLNADSVLWGGHKVFMVKPEEPFQPVKEATQL [F6E],,,,0.0729,
MGESLFFGPRDYNPISSSICHLTNESDGHTTSLYGIGFGPFIITNKHLFRRNNGTLVVQSLHGVFKVKDTTTLQQHLVDGRDMIIIRMPKDFPPFPQKLKFREPQREERICLVTTNFQTKSMSSMVSDTSCTFPSGDGIFWKHWIQTKDGQCGSPLVSTRDGFIVGIHSASNFTNTNNYFTSVPKNFMELLTNQEAQQWVSGWRLNADSVLWGGHKVFMVKPEEPFQPVKEATQL [K7F],0.0645,,,,
MGESLFRGPRDYNPISSSICHLTNESDGHTTSLYGIGFGPFIITNKHLFRRNNGTLVVQSLHGVFKVKDTTTLQQHLVDGRDMIIIRMPKDFPPFPQKLKFREPQREERICLVTTNFQTKSMSSMVSDTSCTFPSGDGIFWKHWIQTKDGQCGSPLVSTRDGFIVGIHSASNFTNTNNYFTSVPKNFMELLTNQEAQQWVSGWRLNADSVLWGGHKVFMVKPEEPFQPVKEATQL [K7R],,,,,0.0564
MGESLFTGPRDYNPISSSICHLTNESDGHTTSLYGIGFGPFIITNKHLFRRNNGTLVVQSLHGVFKVKDTTTLQQHLVDGRDMIIIRMPKDFPPFPQKLKFREPQREERICLVTTNFQTKSMSSMVSDTSCTFPSGDGIFWKHWIQTKDGQCGSPLVSTRDGFIVGIHSASNFTNTNNYFTSVPKNFMELLTNQEAQQWVSGWRLNADSVLWGGHKVFMVKPEEPFQPVKEATQL [K7T],,0.0879,,0.0752,
MGESLFKGDRDYNPISSSICHLTNESDGHTTSLYGIGFGPFIITNKHLFRRNNGTLVVQSLHGVFKVKDTTTLQQHLVDGRDMIIIRMPKDFPPFPQKLKFREPQREERICLVTTNFQTKSMSSMVSDTSCTFPSGDGIFWKHWIQTKDGQCGSPLVSTRDGFIVGIHSASNFTNTNNYFTSVPKNFMELLTNQEAQQWVSGWRLNADSVLWGGHKVFMVKPEEPFQPVKEATQL [P9D],0.0655,0.0644,,0.0711,
MGESLFKGSRDYNPISSSICHLTNESDGHTTSLYGIGFGPFIITNKHLFRRNNGTLVVQSLHGVFKVKDTTTLQQHLVDGRDMIIIRMPKDFPPFPQKLKFREPQREERICLVTTNFQTKSMSSMVSDTSCTFPSGDGIFWKHWIQTKDGQCGSPLVSTRDGFIVGIHSASNFTNTNNYFTSVPKNFMELLTNQEAQQWVSGWRLNADSVLWGGHKVFMVKPEEPFQPVKEATQL [P9S],0.0611,0.0574,0.0608,,
